Reference: the antibiotic and cytotoxicity screens of Wong et al. (2023)
The other results are listed elsewhere or left out.

Tests used:
HSkMC = human skeletal muscle cells; assay: cytotoxicity call (relative viability < 0.9); settings: 10 µM
HepG2 = assay: cytotoxicity call (relative viability < 0.9); settings: 10 µM
S. aureus RN4220 = assay: growth inhibition call (relative growth <= 0.2); settings: 50 µM

Structure (SMILES)	cytotoxicity call (HSkMC)	cytotoxicity call (HepG2)	growth inhibition call (S. aureus RN4220)
COc1cc(O)c2c(=O)c(OC)c(-c3ccc(OC)c(OC)c3)oc2c1	inactive	inactive	inactive
Cc1noc(C)c1NC(=O)Nc1ccc2c(c1)C(=O)N([C@H](C)CO)C[C@H](C)[C@@H](CN(C)S(=O)(=O)c1cccs1)OCCCC[C@H](C)O2	inactive	inactive	inactive
C[C@H](CO)N1C[C@H](C)[C@H](CN(C)S(=O)(=O)c2cccc(F)c2)Oc2ncc(Br)cc2C1=O	inactive	inactive	inactive
COc1ccc(NC(=O)N(C)C[C@@H]2Oc3ncc(C#CCN(C)C)cc3C(=O)N([C@@H](C)CO)C[C@@H]2C)cc1	inactive	inactive	inactive
C[C@@H]1CCCCO[C@@H](CN(C)S(=O)(=O)c2ccc(Cl)cc2)[C@@H](C)CN([C@@H](C)CO)C(=O)c2cc(NC(=O)Nc3cccc4ccccc34)ccc2O1	inactive	active	inactive
C[C@@H]1CCCCO[C@H](CN(C)C(=O)Nc2ccc(F)cc2)[C@@H](C)CN([C@H](C)CO)C(=O)c2cc(NS(=O)(=O)c3ccc(Cl)cc3)ccc2O1	inactive	inactive	inactive
C[C@H]1CN([C@@H](C)CO)C(=O)c2cc(NC(=O)Nc3cccc4ccccc34)ccc2O[C@H]1CN(C)S(=O)(=O)c1ccc(Cl)cc1	inactive	inactive	inactive
COCC(=O)Nc1ccc2c(c1)C(=O)N(C)[C@@H]1CC[C@H](CC(=O)NC3Cc4ccccc4C3)O[C@H]1CO2	inactive	inactive	inactive
Cc1ccccc1-n1ccc(=O)[nH]c1=O	inactive	inactive	inactive
CN(C)CC#Cc1ccc([C@H]2[C@H](CO)N3CCCCN(C(=O)CN(C)C)C[C@@H]23)cc1	inactive	inactive	inactive
C[C@@H]1CN([C@@H](C)CO)C(=O)Cc2cc(NS(=O)(=O)c3cccs3)ccc2O[C@@H]1CN(C)S(=O)(=O)c1cccs1	inactive	inactive	inactive
CN1CCO[C@H]2CCN(C(=O)c3ccn(C)n3)C[C@H]21	inactive	inactive	inactive
C=CCC[C@H](Cc1ccc(F)cc1)C(=O)O[C@H](CNC(=O)[C@@H](CC=C)CC(=O)N[C@H](CO)Cc1ccccc1)c1ccccc1	active	inactive	inactive
C[C@@H]1CN([C@@H](C)CO)C(=O)c2cc(NC(=O)Cn3cnnn3)ccc2O[C@@H]1CN(C)S(=O)(=O)c1ccccc1	inactive	inactive	inactive
O=C(O)CCNC(=O)c1cccc([N+](=O)[O-])c1	inactive	inactive	inactive
C[C@@H]1CCCCO[C@@H](CN(C)Cc2ccncc2)[C@@H](C)CN([C@H](C)CO)C(=O)c2cc(NC(=O)Cc3ccccc3)ccc2O1	inactive	inactive	inactive
C[C@@H]1CN([C@H](C)CO)C(=O)Cc2cc(NC(=O)Cc3ccccc3)ccc2O[C@@H]1CN(C)C(=O)Nc1ccc(C(F)(F)F)cc1	inactive	inactive	inactive
C[C@@H]1CCCCO[C@@H](CN(C)C(=O)Nc2ccc(C(F)(F)F)cc2)[C@H](C)CN([C@@H](C)CO)C(=O)c2cc(N(C)C)ccc2O1	inactive	inactive	inactive
COc1ccc(NC(=O)Nc2ccc3c(c2)CC(=O)N([C@H](C)CO)C[C@H](C)[C@H](CN(C)S(=O)(=O)c2cn(C)cn2)O3)cc1	inactive	inactive	inactive

Structure (SMILES)	cytotoxicity call (HSkMC)	cytotoxicity call (HepG2)	growth inhibition call (S. aureus RN4220)
COc1ccc(NC(=O)N(C)C[C@@H]2OCCCC[C@@H](C)Oc3ccc(NS(=O)(=O)c4ccc(Cl)cc4)cc3C(=O)N([C@@H](C)CO)C[C@H]2C)cc1	inactive	inactive	inactive
CC(=O)NCC(=O)OCC(=O)c1ccccc1	inactive	inactive	inactive
C=CCn1c(=O)c2c(OC)ccnc2n(C)c1=O	inactive	inactive	inactive
C[C@H]1CN([C@@H](C)CO)C(=O)CCCn2nncc2CO[C@@H]1CN(C)S(=O)(=O)c1ccc2c(c1)OCCCO2	inactive	inactive	inactive
C[C@@H]1CN([C@@H](C)CO)C(=O)c2cc(NS(=O)(=O)c3ccc(F)cc3)ccc2O[C@@H](C)CCCCO[C@@H]1CN(C)CC1CCCCC1	inactive	inactive	inactive
COc1ccc(NC(=O)Nc2ccc3c(c2)C(=O)N([C@H](C)CO)C[C@H](C)[C@H](CN(C)Cc2ccc(Cl)c(Cl)c2)OCCCC[C@H](C)O3)cc1	active	inactive	inactive
C[C@H]1CN([C@@H](C)CO)C(=O)c2cccc(NS(=O)(=O)c3ccccc3)c2O[C@@H]1CN(C)Cc1ccc(Cl)c(Cl)c1	inactive	inactive	inactive
C[C@@H]1CN([C@H](C)CO)C(=O)Cc2cc(NS(=O)(=O)c3ccc(Cl)cc3)ccc2O[C@H]1CN(C)Cc1ccc(Oc2ccccc2)cc1	active	active	inactive
CC(=O)N(C)C[C@H]1Oc2cc(C#CCN(C)C)ccc2S(=O)(=O)N([C@@H](C)CO)C[C@H]1C	inactive	inactive	inactive
CC(C)CC#Cc1ccc2c(c1)O[C@@H](CN(C)C(=O)Cc1ccncc1)[C@@H](C)CN([C@H](C)CO)S2(=O)=O	inactive	inactive	inactive
NNc1ccc2c(N)[nH]nc2c1	inactive	inactive	inactive
C[C@@H]1CN([C@H](C)CO)C(=O)c2cccc(NC(=O)C3CC3)c2O[C@H]1CN(C)S(=O)(=O)c1cccs1	inactive	inactive	inactive
C[C@H](CO)N1C[C@H](C)[C@H](CN(C)S(=O)(=O)c2ccc(Cl)cc2)OCc2ccccc2-c2c(n(C)c3ccccc23)C1=O	inactive	active	inactive
CCCN(C)C[C@@H]1OCCCC[C@@H](C)Oc2ccc(NC(=O)c3ccccc3)cc2C(=O)N([C@H](C)CO)C[C@@H]1C	inactive	inactive	inactive
C[C@@H]1CN([C@H](C)CO)C(=O)c2cc(NC(=O)Nc3ccc(C(F)(F)F)cc3)ccc2O[C@H]1CN(C)Cc1ccc(-c2ccccc2)cc1	active	active	inactive
COc1ccc(S(=O)(=O)Nc2ccc3c(c2)CC(=O)N([C@@H](C)CO)C[C@H](C)[C@@H](CN(C)Cc2ccncc2)O3)cc1	inactive	inactive	inactive
Cc1cccn2c(=O)c(-c3nnn[n-]3)cnc12.[K+]	inactive	inactive	inactive
Cc1noc(C)c1NC(=O)Nc1ccc2c(c1)CC(=O)N([C@@H](C)CO)C[C@H](C)[C@@H](CN(C)S(=O)(=O)c1cn(C)cn1)O2	inactive	inactive	inactive
C[C@H]1CN([C@@H](C)CO)S(=O)(=O)c2ccc(-c3ccc(C(=O)N(C)C)cc3)cc2O[C@@H]1CN(C)C(=O)Cc1ccccn1	inactive	inactive	inactive

Structure (SMILES)	cytotoxicity call (HSkMC)	cytotoxicity call (HepG2)	growth inhibition call (S. aureus RN4220)
C[C@@H]1CN([C@H](C)CO)C(=O)c2cc(NC(=O)Nc3ccc(C(F)(F)F)cc3)ccc2O[C@H]1CN(C)C(=O)Nc1ccc(C(F)(F)F)cc1	inactive	inactive	inactive
CC(C)(C)[S@@](=O)N1Cc2cc(C(=O)NC3CCCCC3)nc(-c3cccc(Br)c3)c2[C@H]1CCO	inactive	inactive	inactive
C[C@H]1CN([C@@H](C)CO)C(=O)c2cccc(NS(C)(=O)=O)c2O[C@@H]1CN(C)C(=O)NC1CCCCC1	inactive	inactive	inactive
C[C@H](CO)N1C[C@H](C)[C@@H](CN(C)C(=O)Nc2ccc(F)cc2)Oc2ccc(NC(=O)Cn3cnnn3)cc2CC1=O	inactive	inactive	inactive
C[C@H](CO)N1C[C@H](C)[C@@H](CN(C)Cc2ccc(Cl)c(Cl)c2)Oc2ccc(NC(=O)Nc3ccc4c(c3)OCO4)cc2C1=O	inactive	inactive	inactive
C[C@H](CO)N1C[C@H](C)[C@H](CN(C)C(=O)Nc2cccc3ccccc23)OCCCC[C@H](C)Oc2ccc(NS(=O)(=O)c3cccs3)cc2C1=O	inactive	inactive	inactive
Cc1noc(C)c1NC(=O)N(C)C[C@H]1OCCCC[C@H](C)Oc2ccc(NC(=O)CCC(F)(F)F)cc2C(=O)N([C@H](C)CO)C[C@@H]1C	inactive	inactive	inactive
Nc1nc(=O)c2nc(Br)n([C@@H]3O[C@@H]4COP(=O)(O)O[C@H]4[C@H]3O)c2[nH]1	inactive	inactive	inactive
C[C@@H]1CN([C@H](C)CO)S(=O)(=O)c2ccc(C#CCN(C)C)cc2O[C@@H]1CN(C)S(=O)(=O)c1cccc(F)c1	inactive	inactive	inactive
OCc1ccccc1-n1cncn1	inactive	inactive	inactive
CC(C)C[N+]1(C)Cc2ccccc2C1	inactive	inactive	inactive
C[C@@H]1CCCCO[C@@H](CN(C)C(=O)NC2CCCCC2)[C@H](C)CN([C@H](C)CO)C(=O)c2cc(NC(=O)Cc3ccccc3)ccc2O1	inactive	inactive	inactive
C[C@H]1CN([C@@H](C)CO)C(=O)c2cccc(NS(=O)(=O)c3cccs3)c2O[C@H]1CN(C)S(=O)(=O)c1cccs1	inactive	inactive	inactive
C[C@@H]1CN([C@H](C)CO)C(=O)c2cccc(NC(=O)Nc3ccccc3)c2O[C@@H]1CN(C)C(=O)Nc1ccc(C(F)(F)F)cc1	inactive	inactive	inactive
CC1=C(CCC(=O)O)c2cc3[nH]c(cc4nc(cc5[nH]c(cc1n2)c(C)c5C(C)O)C(C)=C4C(C)O)c(C)c3CCC(=O)O (stereo not drawn)	inactive	active	inactive
C=CC[C@@H](CC(=O)N(CCO)Cc1ccccc1)C(=O)N[C@@H](COC(=O)[C@H](CC=C)Cc1ccc(F)cc1)Cc1c[nH]c2ccccc12	active	active	inactive
CC(C)N1CCOC[C@@]2(C1)CN(S(C)(=O)=O)CCO2	inactive	inactive	inactive
CCC(=C(c1ccccc1)c1ccc(OCCN(C)C)cc1)c1ccccc1.O=C(O)CC(O)(CC(=O)O)C(=O)O	inactive	inactive	active
